{"source": "the supplement of paper PMC11417369", "note": "The other results are listed elsewhere or left out.", "data": [{"system": "PfHDP1 homeodomain (GST-tagged)", "experiment": "gcPBM binding intensity (ln(normalized median fluorescence intensity)); higher = stronger DNA binding", "summary_of_the_method": "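Each value is the highest Masliner-normalised natural-log median intensity across replicate spots of either orientation of a probe. The probes were primer-extended double-stranded 36-bp intergenic genomic sequences on an Agilent 4 × 180k array, alongside negative controls, exposed for 1 h to GST-tagged P. falciparum DNA-binding domains expressed in E. coli. Bound protein was picked up with Alexa488 anti-GST antibody and scanned at 488 nm.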", "values": [{"sequence": "TATAAAATTATTAAACAAGAAAATTTTAGGTAATAC [TGCATGCA_negctrl_site568]", "gcPBM binding intensity (ln)": 6.72}, {"sequence": "TTGATAAAACGTTATGCACACGTACGTGGGTATTTA [CACACA_site8445]", "gcPBM binding intensity (ln)": 10.2}, {"sequence": "TATAATATATTTTGATGTACAAATATATTATATATA [XGTACX_site8633]", "gcPBM binding intensity (ln)": 6.31}, {"sequence": "ATAATATATTTTTGAACACACAATATATATATATAT [CACACA_site4124]", "gcPBM binding intensity (ln)": 9.09}, {"sequence": "ATATAAATATGACACACACACAAAAAAAATAAAGAC [CACACA_site6208]", "gcPBM binding intensity (ln)": 7.67}, {"sequence": "TAATTATAATAAATATTCATATGTTCAAATATATAT [CACACA_negctrl_site151]", "gcPBM binding intensity (ln)": 6.33}, {"sequence": "ATGTGATAGAAGTACACACACATATGTATTTATAAT [CACACA_site5075]", "gcPBM binding intensity (ln)": 6.7}, {"sequence": "AATCAAAATAATTTAACACACAATTTTAATACTGTT [CACACA_site2375]", "gcPBM binding intensity (ln)": 6.24}, {"sequence": "TTTAAGAATTAACGGGGTACAATTCTTAAATATATA [XGTACX_site669]", "gcPBM binding intensity (ln)": 6.33}, {"sequence": "AAATTCCATGAAAAAAGTACTAATTAATACAATATA [XGTACX_site2877]", "gcPBM binding intensity (ln)": 6.49}, {"sequence": "TAGAAGTACATATATGCATGTTAATTTTAAAGGAGG [TGCATGCA_site538]", "gcPBM binding intensity (ln)": 6.9}, {"sequence": "ATTAAAAATATTAGTTGTACTTTATATTTTCATATA [XGTACX_site3614]", "gcPBM binding intensity (ln)": 6.02}, {"sequence": "ATATATATATAGTGTTGTACATTTAAAAATAATATA [XGTACX_site2627]", "gcPBM binding intensity (ln)": 8.84}, {"sequence": "TTTTTTATTAAAAGTAGTACACATGAAAAAAAAAAA [XGTACX_site5524]", "gcPBM binding intensity (ln)": 6.4}, {"sequence": "ATTTTTATAGAAATATGTACACAATATGTATATATT [XGTACX_site7993]", "gcPBM binding intensity (ln)": 6.37}, {"sequence": "TTAATATAGATATAACCACACACATACATCTAATTC [CACACA_site8519]", "gcPBM binding intensity (ln)": 6.77}, {"sequence": "TCTTTTATGCACATTGAGTAAACAACATATTTTTAA [TGCATGCA_negctrl_site561]", "gcPBM binding intensity (ln)": 10.9}, {"sequence": "TTTAAAAAAATTCATGCACACGAAATAAAAAGCACC [CACACA_site8214]", "gcPBM binding intensity (ln)": 9.37}, {"sequence": "TATATATAATTCATACATTTTAAATATATTTATTTA [CACACA_negctrl_site840]", "gcPBM binding intensity (ln)": 6.41}, {"sequence": "TTTTAAAAACGGCATGCATGTAATACATGGAAGGAA [TGCATGCA_site480]", "gcPBM binding intensity (ln)": 7.41}, {"sequence": "TATAATAATATAATGGTGCATGTATATAACCATATA", "gcPBM binding intensity (ln)": 8.84}, {"sequence": "TTTGTTGACAGACACACACACATACATATATATATA [CACACA_site2288]", "gcPBM binding intensity (ln)": 8.79}, {"sequence": "GCTCTTTTGTTATGGTGTACCCTCCATGTAACATAA [XGTACX_site91]", "gcPBM binding intensity (ln)": 6.58}, {"sequence": "TTAATAATTCTTAAAAGTACATAACTTTTTTTTTTT [XGTACX_site751]", "gcPBM binding intensity (ln)": 5.95}]}]}
